PubChem BioAssay AID588855 (National Center for Advancing Translational Sciences (NCATS), 2011)
Screen size: about 410,000 compounds; about 5,000 (1.2%) were called active. Inconclusive means that the source gave no clear call. Such entries were picked first, then a sample of the others. Calls follow the shape of the dose curve; as a rule, active = well fitted inhibition curve with a large enough effect; inconclusive = small, poorly fitted or top-dose-only effect; inactive = no such curve, though single readings can be large or run the other way. Where the call is inconclusive, the potency comes from a doubtful curve fit.

experiment: qHTS for Inhibitors of TGF-b; conditions: HepG2 CAGA-GFP TGF-b/SMAD3 reporter, GFP fluorescence, 18 h, TGF-beta stimulated, 500 pg/mL final; series mostly up to 46.1 µM; activity, negative = inhibition: at the top concentration; also: nearly all actives have a fitted effect of over 65% in size
Outline: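 Per well, imaged GFP fluorescence of HEPG2 CAGA-GFP cells gives the signal; cells get compound, then TGF-beta (500 pg/mL final), 18 h at 37 degrees C; %Activity versus -TGF-beta and +DMSO controls.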
% is scaled to controls: 0 for no effect and ±100 for the full control effect; potency is read from the fitted curve at half-maximal effect; tags tell the direction and shape of the fitted curve.

Compound | Potency | activity, negative = inhibition
CCCOc1ccc(Cc2c(Cl)nc(SC)nc2NC)cc1 | inconclusive: 20 µM [inhibitor, partial curve, poor fit] | 
Cc1ccnc(NC(=O)c2sc3cc(Cl)ccc3c2Cl)c1 |  | inactive: -11%
COc1cccc(NC(=O)C(c2ccccc2)N2CCN(c3ccccn3)CC2)c1 (centres undefined) | inconclusive: 5.62 µM [inhibitor, single point] | 
Cc1nc2cc(NC(=O)N3c4ccccc4CC3C)ccc2o1 (centres undefined) |  | inactive: 0.771%
CC1=CC(=O)c2ccccc2C1=O | inconclusive: 35.5 µM [inhibitor, single point] | 
Cc1ccc(C(=O)Nc2nc3c(s2)CCCC3)o1 | inconclusive: 35.5 µM [inhibitor, single point] | 
COc1cccc(CNc2ccc(N3CCC(C)CC3)cc2)c1OC | inconclusive: 35.5 µM [inhibitor, single point] | 
CCCCCOC(=O)c1[nH]c2c(c1C)C(=O)CC(c1ccco1)C2 (centres undefined) | active: 0.794 µM | 
CC1CCCN(S(=O)(=O)c2cc(C(=O)NCc3ccccc3Cl)n(C)c2)C1 (centres undefined) | inconclusive: 20 µM [inhibitor, single point] | 
CC1(C)S[C@@H]2[C@H](NC(=O)COc3ccccc3)C(=O)N2C1C(=O)OCC1CCCCC1 (some centres undefined) | inconclusive: 7.94 µM [inhibitor, partial curve, poor fit] | 
COc1ccccc1OCc1ccc(C(=O)Nc2cc(OC)c(OC)c(OC)c2)o1 |  | inactive: -5.31%
Cc1ccc(Cc2c(-c3ccc(Br)cc3)nc3cc(C)ccn23)cc1 |  | inactive: 12.7%
Cc1ccc(NC(=O)C(=O)NCC(c2cccnc2)N2CCc3ccccc3C2)cc1 (centres undefined) | inconclusive: 10 µM [inhibitor, partial curve, poor fit] | 
COc1ccccc1NC(=S)NCCC(c1ccccc1)c1ccccc1 | active: 12.6 µM | 
Cc1ccc2nc(SCC(=O)Nc3ccc4c(c3)CCC4)[nH]c2c1 |  | inactive: -15.5%
NS(=O)(=O)c1ccc(CNC(=O)Cc2ccccc2[N+](=O)[O-])cc1 |  | inactive: 2.78%
COc1ccc(S(=O)(=O)N2CCCCC2)cc1NC(=O)c1cccc(S(=O)(=O)N2CCOCC2)c1 | inconclusive: 35.5 µM [inhibitor, partial curve, poor fit] | 
O=C(NC(=S)Nc1c(F)cc(F)cc1Br)c1ccc2c(c1)OCCO2 | inconclusive: 35.5 µM [inhibitor, single point] | 
Cc1ccc(-c2nnc(Nc3cccc(O)c3)c3ccccc23)cc1S(=O)(=O)N1CCCCC1 | inconclusive: 7.94 µM [inhibitor, partial curve] | 
O=C(CCS(=O)(=O)c1ccccc1)Nc1nncs1 | inconclusive: 35.5 µM [inhibitor, single point] | 
COc1ccc(C(=O)NCC(c2ccco2)N(C)C)cc1S(=O)(=O)NCc1ccc(Cl)cc1 (centres undefined) |  | inactive: -2.29%
CC(=O)Nc1ccc2nc(SCC(=O)NCCOc3ccccc3)sc2c1 |  | inactive: -3.89%

Compound | Potency | activity, negative = inhibition
CCOc1ccc(N/C(=N/c2nc(C)cc(C)n2)NC(=O)CC)cc1 | inconclusive: 7.94 µM [inhibitor, partial curve, poor fit] | 
Clc1ccc(CNc2ccc(CNc3ncn[nH]3)cc2)cc1 | inconclusive: 35.5 µM [inhibitor, single point] | 
CC(C)CN(CC(C)C)C(=S)Nc1ccc(Cl)cc1 | inconclusive: 35.5 µM [inhibitor, single point] | 
Cc1ccc(NCCC(=O)c2cccs2)cc1 | inconclusive: 22.4 µM [inhibitor, single point] | 
CCCc1nc(SCc2ccccc2Cl)n[nH]1 | inconclusive: 0.708 µM [inhibitor, partial curve, poor fit] | 
Clc1ccc(/C=C/c2ccnc3ccccc23)cc1 | inconclusive: 35.5 µM [inhibitor, single point] | 
COc1ccc(N(CC(=O)NC2CC3CCC2C3)S(=O)(=O)c2ccccc2)cc1Cl (centres undefined) |  | inactive: -26%
O=C(CSc1nnc(-c2ccncc2)n1-c1ccc(F)cc1)NC(=O)NCc1ccco1 | inconclusive: 35.5 µM [inhibitor, single point] | 
N=c1ncn(C2OC(CO)C(O)C2O)c2nc(Br)[nH]c12 (centres undefined) |  | inactive: -7.89%
CCOc1ccc(CNC(=O)C2=Cc3cc(Br)ccc3OC2)cc1OC | inconclusive: 15.8 µM [inhibitor, single point] | 
CC/C(=N\NC(=O)c1nnn(-c2nonc2N)c1-c1cccc(OC)c1)c1ccc(C)cc1 |  | inactive: 2.35%
COc1ccc(Cc2nnc(Nc3ccc(C)cc3)o2)cc1OC | inconclusive: 12.6 µM [inhibitor, single point] | 
O=C(NCC(c1ccco1)N1CCc2ccccc2C1)c1ccc(Cl)c([N+](=O)[O-])c1 (centres undefined) | inconclusive: 12.6 µM [inhibitor, partial curve] | 
COc1cc(C(C(=O)NC(C)(C)C)N(C(=O)CNC(=O)c2cccs2)c2ccc(C(C)C)cc2)cc(OC)c1OC (centres undefined) | inconclusive: 6.31 µM [inhibitor, partial curve, poor fit] | 
Cc1ccccc1N(CC(=O)NC1CCCCC1)C(=O)CCCC(=O)Nc1ccccn1 |  | inactive: 5.73%
COc1ccc(N2CCN(C(CNC(=O)C(=O)NCc3ccc4c(c3)OCO4)c3ccco3)CC2)cc1 (centres undefined) | inconclusive: 5.62 µM [inhibitor, partial curve, poor fit] | 
CCc1cc(C(=O)N2CCN(C(=O)c3ccccc3)CC2)sc1C |  | inactive: 0%
CN(C)C1(CNC(=O)COc2ccc(C(C)(C)C)cc2)CCCCC1 |  | inactive: 7.3%
CCCCCn1c(-c2cccc(C)c2)nc2ccccc21 | inconclusive: 20 µM [inhibitor, partial curve, poor fit] | 
O=C(OCc1nc2scc(-c3ccccc3)c2c(=O)[nH]1)c1cc(Cl)ccc1[N+](=O)[O-] | inconclusive: 28.2 µM [inhibitor, single point] | 
Cc1ccc(O)c(NC(=S)NC(=O)c2ccc(-c3ccc(Cl)cc3)o2)c1 | inconclusive: 22.4 µM [inhibitor, single point] | 
OCCCNc1ncnc2c1ncn2[C@H]1CN(C2CCCC2)C[C@@H](CO)O1 | inconclusive: 5.62 µM [inhibitor, single point] | 
